# In the supplement of paper PMC11417369:
# This is one part of the list.
# Test system: PfHDP1 homeodomain (GST-tagged)
# Assay: gcPBM binding intensity (ln(normalized median fluorescence intensity)); higher = stronger DNA binding
# Outline: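 Each value is the highest Masliner-normalised natural-log median intensity across replicate spots of either orientation of a probe. The probes were primer-extended double-stranded 36-bp intergenic genomic sequences on an Agilent 4 × 180k array, alongside negative controls, exposed for 1 h to GST-tagged P. falciparum DNA-binding domains expressed in E. coli. Bound protein was picked up with Alexa488 anti-GST antibody and scanned at 488 nm.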
row,Sequence,gcPBM binding intensity (ln)
1,TAATATAGTATAGTATGTACATATAATTAGAATATT [XGTACX_site4053],6.94
2,ATATATATATATATATGTACATATTTTAATAATTAA [XGTACX_site8549],9.22
3,TGTTGTTACATATATACACACATATATATATTATAT [CACACA_site2397],6.95
4,CGCGCACACGGACACACACACACACGGATATAAATA [CACACA_site7102],7.18
5,TAAATATATTTATATTGTACATTTATGTTGATACCA [XGTACX_site228],6.37
6,ATATATATATGTATATGTACATATATATACACATAT [XGTACX_site140],8.31
7,TTTTGTGAATTTTAGATTTTTTAATACAAGAATATT [CACACA_negctrl_site606],6.05
8,TATATATATAATATATGTACTGATATGCTATTTACT [XGTACX_site841],7.42
9,ATATTTACCACTGTATGTACATATATAAAATATATC [XGTACX_site6373],6.82
10,ATTTAATTTATTATGTGTACTTATTTAATTAAATTA [XGTACX_site3171],6.36
11,ATATTTTTATTTAAATCACATCATTTTGTTTATTTG [CACACA_negctrl_site1056],6.49
12,CATATAATTATTGAAAGTACATACAAATAAAAAGAT [XGTACX_site6535],7.11
13,TTATATATTTATAAATGTACATATAATTTTTTTATA [XGTACX_site4696],6.37
14,CTGATATATAGATGTAGTACATAAAAATGACGAATT [XGTACX_site5612],6.55
15,CAAAATAAAAAATTCACACACATATAAATATAAATA [CACACA_site7065],6.44
16,AAAAAAAAAGGTACTACACACTATTATCAATAGAAA [CACACA_site91],6.26
17,TACTTATTATGAAACACACACCAAAACTACAGAATA [CACACA_site6265],7.04
18,ATATTTTATAATTTTACACACCATATAAAATAATTC [CACACA_site2797],6.86
19,ACATGAAACTATAAACGTACATACATACATATATAT [XGTACX_site5011],6.53
20,AATAGTTAAATGTACACACTAACTACATGGAATATA [CACACA_site3262],6.18
21,TATATATAAAACATATGTACATATATATATATATAT [XGTACX_site419],9.44
22,AAGTAAAAAAATAGCACACACACAAAAACACCCACA [CACACA_site1291],7.17
23,ATATATATATAGTGCACACATATAAAATATATATAA [CACACA_site2745],10.8

row,Sequence,gcPBM binding intensity (ln)
1,TTTACAGATACTTGCTCACACATATGTATAAAAATA [CACACA_site4928],7.16
2,TATAATATATATAGGAGTACGTATGTATATTTATAA [XGTACX_site3521],6.65
3,AAAAAAATAAAATGTTCACACATTTCACAATTACTT [CACACA_site4859],6.03
4,AGAGGCCAGCTTTCTCTTCTAAACATGTACAAAAAT [GTGCAC_negctrl_site98],6.4
5,TGAGCACAAATACAGGTGCATATAAAATATATGACG,9.06
6,TTTTTAACATTTAAATGTACATGTTACAATTTAAAG [XGTACX_site8789],6.46
7,TACTAAAACCCATACACACACATATATATAGTACCA [CACACA_site3184],6.77
8,AGAGACTTAGAAAACACACATACATAAGATAATTTA [CACACA_site2377],6.3
9,ACAGCATAATCATGCTGTACATTATTTTCTTAAGTA [XGTACX_site8456],6.13
10,TTTTTATTTTTATACATATAATATATTATGATTAAA [CACACA_negctrl_site214],6.69
11,CGCGAAGTAGCATTCACACACAGCAAAATATATATA [CACACA_site3495],6.83
12,CACTAATAGTGGATTACACACATATATATGTATATA [CACACA_site2531],6.62
13,ACTTACACATTTATTACACACATAAAGGAAAATTTT [CACACA_site1356],7.48
14,TTAAAAAATAACAAGGTGCAAATAGGTTTATAAAAT,9.33
15,ATATTTAAATGGATCACACATATATATATATATATA [CACACA_site5255],9.5
16,CATTTTTCTATATGTGCATGTAAGATAAGAATAATT [TGCATGCA_site107],8.14
17,TTTCGTCATTTTGTTTTTAATTCTACAATTTAGTTA [XGTACX_negctrl_site286],6.53
18,TCATATAATATTTATATGCACACTTTTCTATATATA [CACACA_site4075],8.75
19,CCACTTTTTGAAGACACACACAAAAAAAAAAAAAAA [CACACA_site2551],6.32
20,ATATAATGACAAGTATAAGTATCACAAAGAAATAAA [CACACA_negctrl_site1403],6.87
21,TTTTGAAGAAAATTCTTTTTTTTTTTTTTTTGTAAA [CACACA_negctrl_site102],5.64
22,ATAACAATTATTTGTCGACACACGTATATGTTATTT [CACACA_site1766],6.91
